Measurements taken from PubChem BioAssay (NCI).
Values joined by “and” are separate entries in the source; they are usually repeats but may differ in a detail not shown here. Equal entries are not always repeated.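 Test compounds were applied to cells in 96-well plates for 48 hours at 5 doses. At the GI50, growth is halved. At the TGI there is no net growth.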

Each molecule was assayed on NCI-H322M lung (assay: NCI-60 cell line screen, 48 h).

| Compound | TGI | GI50 [µM] |
| --- | --- | --- |
| Cc1ccccc1NC(=O)c1ccc([N+](=O)[O-])cc1 | > 100 µM |  |
| Cc1ccc(SSCCCCCS(=O)O)cc1 | > 100 µM |  |
| N#CC(c1ccccc1)N(CCOCCOCCN(C(=O)c1cccc2ccccc12)C(C#N)c1ccccc1)C(=O)c1cccc2ccccc12 (centres undefined) | > 100 µM |  |
| CCOC(=O)c1cc2cc(C)cc(C(=O)c3ccc([N+](=O)[O-])cc3)c2[nH]1 | > 100 µM |  |
| C=CCC1C(=O)Nc2cccc3ncn(c23)C1=O (centres undefined) | > 100 µM |  |
| CC(C)NC(=O)OCc1c(COC(=O)NC(C)C)c(-c2ccc[n+](COC(=O)C(C)(C)C)c2)n2c1CCC2 | > 100 µM |  |
| CC(C)c1cccc(C(C)C)c1NC(=O)CCC(=O)NN | > 100 µM |  |
| CCN(CC)CCCNc1ncc(C)c2c1c1ccc3c(O)cccc3c1n2C | 4.74 µM |  |
| O=Nc1c(NO)ccc2nn(-c3ccccc3)nc12 | > 100 µM |  |
| C=C(C)[C@@H]1CC[C@]2(C(N)=O)CC[C@]3(C)[C@H](CC[C@@H]4[C@@]5(C)C/C(=C/c6cccnc6)[C@H](O)C(C)(C)[C@@H]5CC[C@]43C)[C@@H]12 | > 100 µM | 6.37 |
| CC(C)N1[C@@H]2CCCC[C@H]2N(C(C)C)P1(=O)C(=O)/C=C/c1ccccc1 | 11.9 µM |  |
| CCCCCCCCCCCCCCCCCC[N+](C)(C)Cc1ccc(C[N+](C)(C)CCCCCCCCCCCCCCCCCC)cc1 | 39.8 µM |  |
| O=c1/c(=C/c2ccc([N+](=O)[O-])o2)sc2n1[C@@H](c1ccc3c(c1)OCO3)C=C(c1cc(F)c(Cl)cc1Cl)N=2 | > 100 µM |  |
| Cc1c(CC/C(=N\Nc2ccc([N+](=O)[O-])cc2[N+](=O)[O-])c2ccccc2)c2ccccc2n1C | > 100 µM |  |
| Cn1c(=N)n[n+]([O-])c2ccccc21 | 25.6 µM and 29.8 µM |  |
| CCOC(=O)Nn1c(C)cc(C(=O)OC)c1C | > 100 µM |  |
| CC1=C[C@@H]2[C@@H](CC(CO)=C[C@H]3[C@@H]4C(C)(C)[C@]4(OCC(C)C)[C@H](OCC(C)C)[C@@H](C)[C@]23O)C1=O | > 8.32 µM |  |
| COC(=O)c1ccccc1C1CN=NC12Cc1cc(C)cc(C)c1C2=O (centres undefined) | > 100 µM |  |
| O=S(=O)(O)C(Cc1nc2ccccc2[nH]1)S(=O)(=O)OCCC1S(=O)(=O)OCCOS1(=O)=O (centres undefined) | > 100 µM |  |
| COc1ccc(-n2sc3ncc([N+](=O)[O-])cc3c2=O)cc1 | > 100 µM |  |
| C=C[C@H]1C=Cc2c(OC)cccc2[C@@H]1COP1(=S)NC(C)C(c2ccccc2)O1 (some centres undefined) | > 100 µM |  |
| Nc1nc(-c2cccs2)cs1 | > 100 µM |  |
| O=C(O)CCSC(=S)Nc1ccc([N+](=O)[O-])cc1 | > 100 µM |  |
| CC(=O)CCC[C@H](C)[C@@H](O)[C@@H]1O[C@H]([C@@]2(C)CCC(=O)O2)C[C@H]1C(=O)O | > 100 µM |  |

| Compound | TGI | GI50 [µM] |
| --- | --- | --- |
| CCOC(=O)C(C(=O)OCC)=c1sc(=C(C(=O)OCC)C(=O)OCC)s1 | > 100 µM |  |
| C[C@]12CCC(=O)C=C1CC[C@@H]1[C@@H]2[C@@H](O)C[C@@]2(C)[C@H]1CC[C@]2(O)C(=O)COC(=O)C1CCCC1 | > 100 µM |  |
| C=CCSSc1ncnc2c1ncn2C1OC(CO)C(O)C1O (centres undefined) | > 100 µM | 4.53 |
| CCO/C=C(\C(=O)OC)S(=O)(=O)c1ccc(C)cc1 | > 100 µM |  |
| Cn1sc2ccccc2c1=S | > 62.1 µM |  |
| CC1(O)Oc2ccc3ccccc3c2C=C1C(N)=O (centres undefined) | > 100 µM |  |
| Cc1ccc2c(c1)C=CC(C#N)N2C(=O)Oc1ccccc1 (centres undefined) | 58.3 µM |  |
| c1ccc2c3c(ccc2c1)-c1c(ccc2c(NCCCCN4CCCCC4)cccc12)C3 | 2.89 µM |  |
| O=[N+]([O-])c1cc2c(c([N+](=O)[O-])c1)Nc1ccccc1O2 | 54.4 µM | 12.5 |
| N#CC1(C#N)C(c2ccccc2)C=CC(c2ccc([N+](=O)[O-])cc2)C1(C#N)C#N (centres undefined) | 34.9 µM |  |
| O=c1cc(-c2cccc(OCc3ccccc3)c2)[nH]c2cc3c(cc12)OCO3 | > 100 µM |  |
| Cc1ccc(NC(=O)c2cc3ccccc3cc2O)c(C)c1.Cc1ccc(NC(=O)c2cc3ccccc3cc2[O-])c(C)c1.[Ni+2] | 8.15 µM | 2.47 |
| CC1=Nc2ccccc2C12C(c1ccccc1)C(c1ccccc1)C(=O)N1c3ccccc3CC12 (centres undefined) | > 100 µM |  |
| COc1cccc(Nc2nc(N)nc(N)c2N=O)c1 | 83.9 µM |  |
| O=c1ccnc(SCc2ccc(Cl)cc2)[nH]1 | > 100 µM |  |
| Cc1cc2nc(C(Cl)Cl)nc(-c3ccccc3)n2n1 | 4.72 µM | 1.84 |
| CCOC(=O)c1c(CN2CCCC2)n(-c2ccccc2)c2cc(Br)c(OC)cc12 | 83.8 µM |  |
| CC[C@H]1C=CCC[C@@]2(C[C@@H]3CC[C@H]4[C@H](C(=O)OCCCCCCCCCCCCCCCC(=O)N(CCCN)C[C@@H](O)CCN)[C@]5(CCC[C@@H](C)O5)NC(=[N+]34)N2)O1 | 2.48 µM |  |
| COc1cc(C)c(NC(=O)CN(C)C)cc1Nc1nc(Nc2cccc(F)c2C(N)=O)c2cc[nH]c2n1 | 6.33 µM | 1.57 |
| CCCCCC/C=C1\CCC(CN(C)C)C1=O (centres undefined) | 32.2 µM |  |
| O=S(O)c1cc(Cl)cc(Cl)c1OCc1ccccc1 | > 100 µM |  |
| Cc1cc(O)c2c(c1)CC(O)C1=C2C(=O)c2c(O)ccc(OC3CC(O)C(OC4CC(OC5CCC(O)C(C)O5)C(O)C(C)O4)C(C)O3)c2C1=O (centres undefined) | 9.43 µM |  |
| N#C[S-].[Ce+3].c1cnc2c(c1)ccc1cccnc12.c1cnc2c(c1)ccc1cccnc12.c1cnc2c(c1)ccc1cccnc12 | 15.2 µM |  |
| COc1cc2c(cc1OC)C(=O)/C(=C/c1ccc([N+](=O)[O-])cc1)CC2 | > 10 µM |  |
